Screen size: about 150,000 compounds; about 540 (0.36%) showed an effect of 50% or more. The list shows a part of the results.

For orientation: % Inhibition means the relative decrease from the control value, in per cent.

For the experiment, the system named is Plasmodium falciparum. Nature of the experiment: Primary screen in NF54 nanoGlo assay, in single point, at 2uM, 72h; a lower Z score goes with more inhibition. It counts as functional, Erythrocyte. The settings on record: timepoint 72 hour.
Take `CN(CCCNC(=O)Cc1cccnc1)c1ccc(F)cc1`: the “% Inhibition” value was -10% and the Z score turned out to be 1.37.

`Cn1ccc(NCC(C)(C)CCC#N)n1`: the “% Inhibition” value amounted to 3% and the Z score is on record as -0.4.

With `COc1cc(OC)c(N2C[C@@H](C(=O)N3CC(=O)Nc4ccccc43)CC2=O)cc1Cl`, the “% Inhibition” value is reported as -13% and the Z score is recorded as 1.85.

As for `CC(C)n1ccnc1CN1CCCn2nc(CNC(=O)N(C)C)cc2C1`, the “% Inhibition” value turned out to be 0% and the Z score is 0.03.

Consider `CCNC(=O)[C@H]1CCN(c2nc(-c3ccccc3)nc3c2CCNC3)C1`, for which the “% Inhibition” value is -6% and the Z score was 0.72.

Consider `COc1ccccc1N1CCN(C(=O)C2CC2c2ccco2)CC1` (stereo not given), for which the “% Inhibition” value is on record as -3% and the Z score is given as 0.41.

Take `COc1ccccc1N1CCN(C(=O)Cc2csc(-n3nc(C)c(Cl)c3C)n2)CC1`: the “% Inhibition” value was -10% and the Z score was 1.87.

With `O=C(CCc1nc(-c2ccc(S(=O)(=O)N3CCCC3)cc2)no1)N1CCCC1`, the “% Inhibition” value is given as 0% and the Z score was 0.05.

`Cc1ccccc1C(=O)NCC(=O)N1CCC(C2CCCC2)CC1`: the “% Inhibition” value stood at 28% and the Z score is -3.82.

`CCCNC(=O)COc1c(Cl)cccc1CCC(=O)OC`: the “% Inhibition” value was -2% and the Z score worked out at 0.22.

As to `CN1CCC2(CC1)CN(c1ncnc3c1cnn3C)Cc1ccccc12`, the “% Inhibition” value was -4% and the Z score worked out at 0.67.

With `O=C(c1ccccc1F)N1CCN(C(=O)c2nnn3c2CO[C@H](c2ccc(Cl)cc2)C3)CC1`, the “% Inhibition” value is reported as -24% and the Z score was found to be 2.19.

`COc1cc(Cl)c(CNC(C)(C)CO)cc1OC`: the “% Inhibition” value was 4% and the Z score is -0.67.

Take `Cc1ccncc1CN(C)c1ccnc(C#N)c1`: the “% Inhibition” value is on record as 1% and the Z score is reported as -0.18.

Turning to `CC(C)n1ccc(CNC(=O)N[C@@H](C)CCc2cccn2C)n1`, the “% Inhibition” value is given as 2% and the Z score is reported as -0.41.

For the compound `CCOc1cc(C(=O)CC#N)cc(OCC)c1OCC`, the “% Inhibition” value is recorded as -3% and the Z score was determined as 0.41.

Take `C[C@@H]1CN(Cc2nnnn2CC(=O)N2CCCCCCC2)C[C@H](C)O1`: the “% Inhibition” value is -6% and the Z score was 1.11.

`Cc1c(CN(C)C2CCN(c3nnc(-c4ccccc4)s3)CC2)cnn1C`: the “% Inhibition” value is reported as 3% and the Z score is reported as -0.3.

For `Cc1cc(CNC(=O)C2CCCC2)c(C)o1`, the “% Inhibition” value is -6% and the Z score is given as 0.84.

Consider `COCc1nc(Cn2ncc3ccccc3c2=O)no1`, for which the “% Inhibition” value is -3% and the Z score was 0.43.

As to `O=C1CN(C(=O)C2CC23CCOc2ccccc23)c2ccncc2N1` (stereo not given), the “% Inhibition” value is 1% and the Z score is reported as -0.12.

For the compound `CCC(NC(=O)NC(C)(CO)C1CC1)c1ccccc1OC` (stereo not given), the “% Inhibition” value was -5% and the Z score is 0.41.

As for `COc1ccccc1Cn1ncc2[nH]c(-c3cccn3-c3nccs3)nc21`, the “% Inhibition” value is recorded as -13% and the Z score stood at 1.8.

For `c1cc(CN[C@H]2CC3CCC2CC3)n[nH]1`, the “% Inhibition” value is -7% and the Z score was determined as 0.84.

`C[C@@H](c1ccc(C(=O)NC2(C(N)=O)CCCC2)o1)N1CCCCC1`: the “% Inhibition” value was 10% and the Z score is -1.34.

On to `COc1ccc([C@H]2C3CCCCC3(O)CCN2C/C=C/c2ccccc2)cc1` (stereo not given in full), for which the “% Inhibition” value is listed as -4% and the Z score turned out to be 0.68.

In the case of `CCc1cccnc1NC(=O)CC1(OC)CCC1`, the “% Inhibition” value came out at 0% and the Z score was -0.02.

Consider `Cc1cc(N2CCC(c3nncn3C(C)C)CC2)c(C#N)c(C)n1`, for which the “% Inhibition” value is given as -16% and the Z score is listed as 1.8.

Take `CC(C)N(C(=O)c1ccn(C)c(=O)c1)[C@H]1CCCc2cccnc21`: the “% Inhibition” value was -13% and the Z score is recorded as 1.34.

Turning to `Cn1cc(CNC2(C(N)=O)CCCCC2)cn1`, the “% Inhibition” value worked out at 14% and the Z score was -2.67.

Regarding `COc1cc(Cl)ccc1-c1nc(-c2ccc3c(c2)ncn3CCC(=O)N2CCCCC2)no1`, the “% Inhibition” value is recorded as -18% and the Z score was determined as 2.29.

For `CCc1cnccc1C(=O)N1CC(=O)Nc2cccc3cccc1c23`, the “% Inhibition” value was determined as 1% and the Z score is recorded as -0.16.

As to `C[C@@H](C(=O)Nc1nnc[nH]1)c1ccc2c(c1)[nH]c1ccc(Cl)cc12`, the “% Inhibition” value is reported as -7% and the Z score was 0.71.

Regarding `COc1ccc(-c2noc(NCc3ccc(OC)cc3OC)n2)cc1`, the “% Inhibition” value was -10% and the Z score is reported as 0.88.

As for `Cc1cccc(CN2CCC(CNC(=O)[C@H]3CCCN(c4cc(=O)n(C)c(=O)n4C)C3)CC2)c1`, the “% Inhibition” value was determined as 3% and the Z score is reported as -0.55.

As to `Cc1cccc(CN2CCC[C@@]3(CCN(C(=O)c4[nH]c(C)cc4C)C3)C2)c1`, the “% Inhibition” value is given as -9% and the Z score is given as 1.14.

As to `Cc1cc(C(=O)NCCN2CC=CCC2)[nH]n1`, the “% Inhibition” value is on record as -3% and the Z score stood at 0.45.

Turning to `O=C(CN1CCOC2CCCCC21)NC1CCCCNC1=O` (stereo not given), the “% Inhibition” value worked out at 0% and the Z score came to 0.07.

Take `Cc1cc(C)c2nc(N3CCC(C(=O)N4CCN(c5cccc(C)c5C)CC4)CC3)sc2c1`: the “% Inhibition” value is -3% and the Z score amounted to 0.32.

With `O=S(=O)(c1ccc(Cl)s1)N1CCC[C@H]1c1ccccc1F`, the “% Inhibition” value is recorded as -6% and the Z score worked out at 1.09.

Turning to `COc1nn(C)cc1C(=O)NCCc1nc2c(c(C(F)(F)F)n1)CCCC2`, the “% Inhibition” value is listed as -19% and the Z score was determined as 2.19.

`O=C(CCN1CCCCO1)NCc1cccnc1N1CCCCCCC1`: the “% Inhibition” value worked out at 13% and the Z score is given as -1.64.

On to `O=C(O)[C@H]1CCCN(C(=O)NC2CC=C(c3ccc(F)cc3)CC2)C1` (stereo not given in full), for which the “% Inhibition” value is recorded as -13% and the Z score came out at 2.6.

As for `C#CCN(Cc1nc(C)ccc1O)[C@H]1CCS(=O)(=O)C1`, the “% Inhibition” value amounted to 10% and the Z score is -1.74.

As to `O=C(Nc1cccc2nsnc12)C1CCC1`, the “% Inhibition” value amounted to 0% and the Z score is listed as -0.03.

Regarding `O=C(c1cc(-c2ccccc2)c(N2CCOCC2)s1)N1CCC(C(=O)N2CCCCCC2)CC1`, the “% Inhibition” value stood at 9% and the Z score was -1.59.

Turning to `O=C([C@@H]1CNCCO1)N1CCN(c2ccccc2F)CC1`, the “% Inhibition” value is -17% and the Z score came out at 1.98.

Regarding `CN(C)S(=O)(=O)CCNc1ncnc2c1Cc1ccccc1OC2`, the “% Inhibition” value was -9% and the Z score is reported as 1.72.

Consider `Cn1cnc(C(=O)N2CCN(C(=O)Cc3c[nH]c4ccccc34)CC2)n1`, for which the “% Inhibition” value is reported as 13% and the Z score was -1.7.

In the case of `CCc1ncc(CN(C)C(=O)[C@@H](N)C(C)C)s1`, the “% Inhibition” value is given as -10% and the Z score came to 1.03.

On to `c1cc2ncnc(NC3CCCCCC3)c2cn1`, for which the “% Inhibition” value is recorded as -6% and the Z score was 1.04.

Consider `COCC(=O)Nc1cc(C)nn1-c1nc2c(cnn2-c2ccc(F)cc2)c(=O)[nH]1`, for which the “% Inhibition” value is -12% and the Z score amounted to 2.34.

For `CCOC(=O)c1nc(NCc2ccc(Cl)cc2)c2c(C)noc2n1`, the “% Inhibition” value stood at 11% and the Z score was -2.

For `O=S(=O)(NC[C@H]1OC[C@@H](NCc2ccccc2F)[C@@H]1O)c1ccccc1`, the “% Inhibition” value is recorded as -14% and the Z score came out at 2.19.

For the compound `CC[C@@H](C(=O)N[C@H]1CC[C@H](Oc2ncccn2)CC1)c1ccccc1`, the “% Inhibition” value stood at 18% and the Z score is listed as -2.04.
